Experimental data: PubChem BioAssay AID1159614 (National Center for Advancing Translational Sciences (NCATS), 2016)
Among all 45,000 compounds or so, about 65 (0.1%) were called active. The call rests on the fitted dose curve; in most records, active means well fitted activation curve with a large enough effect; inconclusive means small, poorly fitted or top-dose-only effect; inactive means no such curve, though single readings can be large or run the other way. The list shows a part of the results.

Biological target: Galactocerebrosidase (Homo sapiens) (UniProt P54803)
UniProt P54803, sequence (P54803 whole entry, looked up): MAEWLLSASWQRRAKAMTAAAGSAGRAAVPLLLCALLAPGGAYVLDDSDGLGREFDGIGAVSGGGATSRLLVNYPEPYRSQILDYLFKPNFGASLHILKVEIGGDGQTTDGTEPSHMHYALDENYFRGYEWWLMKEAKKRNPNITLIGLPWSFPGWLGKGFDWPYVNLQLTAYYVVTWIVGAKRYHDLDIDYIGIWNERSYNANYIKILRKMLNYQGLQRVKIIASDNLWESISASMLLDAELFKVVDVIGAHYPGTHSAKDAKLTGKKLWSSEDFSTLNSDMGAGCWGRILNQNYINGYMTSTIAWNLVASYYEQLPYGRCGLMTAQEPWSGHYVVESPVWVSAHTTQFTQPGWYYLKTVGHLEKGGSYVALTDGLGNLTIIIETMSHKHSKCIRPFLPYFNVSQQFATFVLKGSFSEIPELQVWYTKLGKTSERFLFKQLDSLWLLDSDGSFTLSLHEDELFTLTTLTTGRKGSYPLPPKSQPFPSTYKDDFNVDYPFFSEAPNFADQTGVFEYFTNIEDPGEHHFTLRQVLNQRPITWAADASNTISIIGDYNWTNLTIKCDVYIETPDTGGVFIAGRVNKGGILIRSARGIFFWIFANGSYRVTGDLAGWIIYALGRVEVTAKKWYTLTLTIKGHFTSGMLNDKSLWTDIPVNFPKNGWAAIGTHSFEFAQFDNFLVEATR
Assay: A Novel Cell-Based Assay to Identify Small Molecules for B -Galactocerebrosidase; further: 0% is about no effect; nearly all actives have a fitted effect of over 65% in size
Details: 145M-Twi-hGALC-G270D cells (Twitcher mouse brain line with human GALC G270D), HMU-beta-Gal fluorescence, 48 h; series mostly up to 57.5 µM; activation: at the top concentration
Text: Lysosomal storage diseases (LSDs) are caused by genetic mutations in genes encoding proteins important for normal lysosomal function. Globoid cell leukodystrophy (GLD), mostly known as Krabbe disease, is a prototype of the neurological LSDs caused by deficiency of beta-galactocerebrosidase (GALC). In brain specimens of GLD patients, psychosine levels are substantially elevated. At elevated concentrations, psychosine becomes cytotoxic to neuronal cells, particularly to oligodendrocytes (OLG), neural cells responsible for myelin formation. Therefore, the biochemical disturbances in GLD are manifested by different degrees of brain demyelination resulting in a broad spectrum of neurological manifestations. Most of the FDA-approved therapies are based on enzyme replacement therapeutic (ERT) agents, which treat non-neurological symptoms of Gaucher disease, Fabry disease, few mucopolysaccharidoses and Pompe disease. Unfortunately, in GLD, a primarily neurological LSD, ERT agents, as large molecular weight molecules unable to cross the blood-brain barrier, which makes this an inefficacious therapeutic approach. In GLD, increasing the residual GALC activity just above the critical threshold (~10% of wild type enzymatic activity), the cytotoxic levels of psychosine will be reduced, avoiding the OLGs apoptosis and the subsequent demyelination process. This will translate in disease stabilization and amelioration of GLD patient symptoms.
A cell-based assay in 1,536-well plate format was developed to implement a quantitative high-throughput screening (qHTS) assay using GLD-disease relevant cells to identify small molecules that produce enhancements of the residual enzymatic activity levels of mutants GALC found and prevalent in GLD patients. Compounds that are active may therefore have some therapeutic application for GLD. After the treatment of live cells for a determined period, using a fluorescent GALC specific substrate, the mutant residual GALC activity is measured. This cell-based qTHS assay was used to screen part of the MLPCN library for small molecule able to increase the mutant GALC enzymatic activity. In this assay, increased fluorescent signal corresponds to enhanced levels of mutant GALC residual enzymatic activity. Activation is the desired outcome for this assay.
NIH Chemical Genomics Center [NCGC]
NIH Molecular Libraries Probe Centers Network [MLPCN]
Assay Submitter (PI): Gustavo Maegawa MD,PhD, University of Florida, Gainesville, FL
2)#Two cell lines were established for the assay: 145M-Twi-hGALC-G270D (brain-derived Twitcher cell line stably expressing human GALC-G270D) and 145M-Twi-hGALC-WT (same 145M-Twi stably expressing human GALC wild type). The Twitcher is the murine C57B/6 model for GLD with naturally occurring homozygous nonsense GALC mutation. The 145M-Twi cell line was established at Maegawa lab (Ribbens J et al 2014).
a.#Media: DMEM/F12 (1:1) with 10% fetal bovine-serum (FBS) with penicillin/streptomycin (PS-1X - 100 I.U./mL of penicillin+100 ug/mL of streptomycin).
b.#The 6-Hexadecanoylamino-4-methylumbelliferyl-b-D-galactoside (HMU-B-gal) substrate was prepared as per Wiederschain et al 1992. Using 20-mL borosilicate tubes, 2.20 mg of HMU-b-Gal was added in each tube to prepare substrate-film with a final air-nitrogen stream evaporation to remove all diluent solvents.
c.#The HMUb-Gal substrate buffer consists of 0.2 M Na2HPO4 (sodium phosphate dibasic)/ 0.1 M Citric Acid with the pH adjusted to 5.2 using HCl. Sodium Azide at 0.02% and Sodium Taurocholate (NaTC) at 1 mg/mL were added to this substrate buffer.
d.#The HMU-b-Gal stopping buffer consist of 0.5 M NaHCO3 (sodium bicarbonate) /0.5 M Na2CO3 (sodium carbonate). […] Triton X-100 at 0.25% was added.
4)#Preparation of HMU-b-Gal substrate tubes
Adding 18.6 mL of the HMUb-Gal substrate buffer to each 20-mL tube (2.20 mg of HMU-b-Gal) will reach a concentration of 0.2 mM. Vortex well the tube until the solution is fully homogenized (clear cloudy solution). […]

activation, inactive:
Cc1c(C(=O)NCc2ccc(OC(C)C)cc2)sc2ncnc(N(C)C3CCCCC3)c12 -2.66%
CC1=Nc2cc(C(=O)N3CCCCC3)ccc2Sc2ccc(C)cc21 -6.2%
COc1ccccc1CCNC(=O)CCCn1c(=O)c2cccn2c2cccnc21 -5.72%
Cc1ccc2[nH]c(CSc3nnc(NC(=O)COc4ccc(F)cc4)s3)cc(=O)c2c1 -11.8%
Cc1ccccc1C(=O)n1nc(-c2ccco2)nc1NCc1cccs1 -27.8%
CCCN(CCC)CCNC(=O)c1nn(C)c2c1CS(=O)(=O)c1ccccc1-2 -8.12%
CCOC(=O)c1c(C)oc2nc(C)nc(N3CCN(c4cccc(C(F)(F)F)c4)CC3)c12 -7.42%
COc1ccc(C2CC(=O)N(CC(=O)Nc3ccc(C(C)=O)cc3)c3ccccc3S2)cc1OC (stereo not given) -9.01%
O=C(NCC(c1ccc2c(c1)OCO2)N1CCN(c2ccccc2F)CC1)c1ccccc1F (stereo not given) -14.9%
COc1ccc(CCC(=O)NC2CC(=O)N(c3ccccc3)C2)cc1 (stereo not given) -18.6%
CCOC(=O)c1c(NC(=O)/C=C/c2ccc(Cl)cc2)sc2c1CCC(C)C2 (stereo not given) -14.5%
COc1ccc(CNC(=O)c2cc(-c3ccc(Cl)cc3)n[nH]2)cc1 -19.9%
O=C(CCCCn1c(=O)c2ccccc2n(Cc2cccc(Cl)c2)c1=O)NCc1ccc2c(c1)OCO2 -6.61%
O=C(NCc1nc(-c2ccccc2)no1)c1ccco1 -16.1%
COc1cc(Cl)c(C)cc1NC(=O)c1nn(C)c2c1CSc1ccccc1-2 -8.07%
CCCn1c2ccccc2c2cnn(CC(=O)NCCCN(Cc3ccccc3)C(C)C)c(=O)c21 -4.47%
CCCN(CCC)CCCNC(=O)c1cn(C)c2ccc(S(=O)(=O)N3CCOCC3)cc2c1=O -8.44%
O=S(=O)(NCCc1csc2nc(-c3ccc(Cl)cc3)nn12)c1ccc2c(c1)OCCO2 -16.6%
CCn1cc(C(=O)NCCc2ccccc2)c(=O)c2cc(S(=O)(=O)N3CCc4ccccc4C3)ccc21 -12.8%
COc1ccc(Nc2cc(C(=O)NCCCN(C)C3CCCCC3)c3ccccc3n2)c(OC)c1 -9.7%
COC(=O)c1ccc2c(=O)n(CCCCCC(=O)NCc3ccc(OC)cc3)c(=O)[nH]c2c1 -18.4%
COc1ccc(-c2cc(C)no2)cc1S(=O)(=O)N1CCOc2ccc(Cl)cc21 -8.32%
CC(C)c1ccc(NC(=O)CN2C(=O)COc3ccc(S(=O)(=O)N4CCOCC4)cc32)cc1 -10.4%
COc1ccc(CCNc2nc(SCc3cccc(F)c3)nc3ccccc23)cc1OC -7.42%
CCC(C)NC(=O)CN1C(=O)c2cccnc2Oc2ccc(C)cc21 (stereo not given) -6.88%
CCc1cc2c(cc3c(=O)n(CC(=O)NCCc4ccccc4)ncn32)s1 -5.78%
O=C(Nc1ccc(Cl)c(C(F)(F)F)c1)C(Cc1ccccc1)NS(=O)(=O)c1cccc2nsnc12 (stereo not given) -9.63%
Cc1ccc(C)c(NC(=O)c2ccc3c(c2)CCN3S(=O)(=O)c2ccccc2)c1 -25.4%
COc1ccc2oc(=O)c(-c3nc(-c4ccc(C)c(C)c4)cs3)cc2c1 -4.59%
CCC(Sc1nc2ncccc2o1)C(=O)Nc1cccc(C)c1 (stereo not given) 9.05%
O=C(CSc1nccn1Cc1ccc(Cl)cc1)Nc1ccc2c(c1)OCO2 -19.5%
COc1ccc(NC(=O)C2CCCN(S(=O)(=O)c3c(C)[nH]c(=O)[nH]c3=O)C2)cc1Cl (stereo not given) -7.15%
COc1cccc(-n2cc(C(=O)NCc3ccc(C)cc3)c3ccccc3c2=O)c1 -13.8%
O=C(CN1N=C(c2ccccc2)CCC1=O)NCc1ccc(F)cc1Cl -10.4%
C[N+]1(CC2COC(c3ccccc3)(c3ccccc3)O2)CCCCC1 (stereo not given) -16.6% [at 23.8 µM]
C[C@H]1NCc2cc(-c3ccc4c(=O)c(C(=O)O)cn(C5CC5)c4c3OC(F)F)ccc21 -3.82% [at 23.8 µM]
CCc1ccc(C2c3c(-c4ccccc4)n[nH]c3C(=O)N2c2ccc(C(=O)O)cc2)cc1 (stereo not given) -0.432%
COc1ccc(-c2nc(CNC(=O)NC3CCCCC3)c(C)o2)c(OC)c1 -8.99%
Cc1ccc2c(c1)C(C)(c1ccccc1)CC(C)(C)N2C(=O)c1ccc(F)cc1 (stereo not given) -32.8%
CC(=O)c1ccc(NC(=O)Cn2c(=O)oc3cc(S(=O)(=O)N4CCCCC4)ccc32)cc1 -16.8%
O=C1CCCc2[nH]c(=O)c(-c3nc(-c4cccc([N+](=O)[O-])c4)cs3)cc21 -6.73%
CC1=C(c2ccc(C)cc2)S(=O)(=O)N(Cc2ccc(C(=O)NCc3ccccc3F)cc2)C1=O -24.6%
CCCCCCc1cc2cc(-c3cn4c(n3)sc3cc(OC)ccc34)c(=O)oc2cc1O -7.2%
O=S(=O)(NCCc1cn2ccsc2n1)c1ccc(Cl)cc1 5.03%
O=C(CN1C(=O)COc2ccc(S(=O)(=O)N3CCOCC3)cc21)N1CCN(c2ccc(Cl)cc2)CC1 -8.27%
O=C(CCCn1c(=O)[nH]c2ccccc2c1=O)N1CCN(c2ccccc2)CC1 -6.5%
CCOC(=O)c1cc2c(=O)n3ccccc3nc2n(Cc2ccco2)c1=NC(=O)c1ccc(F)cc1 -12.7%
Cc1cc(OCC(=O)Nc2nc3c(s2)CCCC3)cc(C)c1Cl -7.37%
CCOC(=O)c1ccccc1NC(=O)COc1cc(=O)n(CC)c2ccccc12 -10.9%
O=C(Nc1cccc(Cl)c1)c1cc(S(=O)(=O)N2CCC3(CC2)OCCO3)ccc1F -13.7%
Cc1ccccc1C(=O)n1nc(-c2cccnc2)nc1NCc1ccc(F)cc1 -35.2%
CCN(CCCNC(=O)Cn1ncc2c3ccccc3n(C)c2c1=O)c1cccc(C)c1 -14.2%
COc1cc(OC)c(NC(=O)Cn2cnc3c(nc4n3CCCCC4)c2=O)cc1Cl -22.5%
COc1ccc(NC(=O)CC(C)S(=O)(=O)c2ccc3c(c2)NC(=O)CO3)cc1OC (stereo not given) -7.54%
O=C(CN1CCN(C2CCCCC2)C(=O)C1=O)Nc1ccc(Cl)cc1 -1.11%
O=C(CCC1N=C2c3ccccc3N=C(SCc3ccc(Cl)cc3)N2C1=O)NC1CCCCC1 (stereo not given) -18.2%
CCOc1ccccc1NC(=O)Cn1c(=O)n(Cc2ccccc2)c(=O)c2c3c(sc21)CN(C(C)=O)CC3 -8.45%
Cc1cccc(C)c1NC(=O)Cn1c(=O)cc(C)c2c(C)nn(-c3cccc(Cl)c3C)c21 -13.5%
COc1ccc(Cl)cc1NC(=O)c1sc2nc3c(cc2c1N)CN(C)CC3 -10%
Cc1ccc(-n2ncc3c(N4CCCCC4)ncnc32)cc1 -5.29%
